According to PubChem BioAssay (NCATS):
Values joined by “and” are separate entries in the source; they are usually repeats but may differ in a detail not shown here. Equal values may be shown once. Inconclusive results, whose numbers are uncertain, are shown with a selection of clear calls. A potency beside an inconclusive call is a rough fit, not a confirmed value. Active and inactive are the calls of the source. The call rests on the fitted dose curve; in most records, active means well fitted curve in the direction sought with a large enough effect; inconclusive means small, poorly fitted or top-dose-only effect, or another doubt; inactive means no such curve, though single readings can be large; an effect the other way counts as inactive or inconclusive.

Assays:
[1] = P-glycoprotein substrates identified in KB-8-5-11 adenocarcinoma cell line, qHTS therapeutic library screen (AID 1346987); conditions: KB-8-5-11 (P-gp overexpressing) viability, CellTiter-Glo, 72 h; series mostly up to 44.5 µM; further: nearly all actives have a fitted effect of over 65% in size; on activity change, negative = cytotoxicity: on the % scale 0 is the no-effect control and ±100 the full control effect
How it was run: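 In this qHTS, P-gp-rich KB-8-5-11 cells received library compounds across a concentration range. Viability was quantified by luminescence after 72 h at 37 degree C.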

[2] = tested on: Zika virus NS2B-NS3 protease (linked construct); test: Primary screen NINDS Rhodamine qHTS for Zika virus inhibitors (AID 1347160); conditions: purified NS2B-NS3 protease, Rhodamine110 substrate fluorescence; activity change, negative = inhibition: at 57.1 µM (top of the series) unless noted; series mostly up to 57.1 µM; further: nearly all actives have a fitted effect of over 55% in size; on activity change, negative = inhibition: on the % scale 0 is the no-effect control and ±100 the full control effect
How it was run: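 Enzyme (25 nM, linked NS2B-NS3) was preincubated 15 min with compound in 10 mM Tris-HCl pH 8.0, 0.01% Tween 20. Rhodamine110 substrate (1.5 microM) was then added and fluorescence read at start and after 15 min.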

[3] = Primary qHTS for inhibitors of nuclear receptor binding SET domain protein 2 (NSD2) in an isogenic RCH-ACV NSD2 p.E1099K mutant (9B) (AID 1645876); conditions: RCH-ACV NSD2 E1099K (9B) viability, CellTiter-Glo, 72 h; series mostly up to 44.9 µM; further: nearly all actives have a fitted effect of over 70% in size
[4] = Primary fluorescence-based thiol-reactive (MSTI) qHTS assay for identification of artifact compounds. (AID 1845221); conditions: MSTI thiol-reactivity probe, 1 h; series mostly up to 53.8 µM;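 further: thiol-reactive compounds lower the probe fluorescence signal; nearly all actives have a fitted effect of over 65% in size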
How it was run: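 In PBS pH 7.4 with 2% DMSO, each compound met 4 uM MSTI for one hour at ambient temperature, shielded from light, before fluorescence detection.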

CRL-7250 = normal cell line; test: Cytotoxic Profiling of Annotated Libraries Using Quantitative High-Throughput Screening (AID 1296008); conditions: Five cell lines viability, CellTiter-Glo ATP luminescence, 48-72 h; max response: active compounds read low; further: nearly all actives have a fitted effect of over 60% in size; on max response: on the % scale 0 is the no-effect control and ±100 the full control effect
How it was run: (§1)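 Cells exposed to compounds for 48 or 72 hr at 37 degrees Celsius. Viability read as ATP-coupled luminescence with CellTiter-Glo after 10 min at room temperature.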

NIH3T3 = test: as above; conditions: Five cell lines viability, CellTiter-Glo ATP luminescence, 48-72 h; max response: active compounds read low
How it was run: as §1

CAOV3 = test: Primary qHTS to identify gynecologic anti-cancer compounds using libraries of approved drugs and bioactive compounds (AID 1345084); conditions: Gynecologic cancer cell panel viability, ATPlite luminescence, 48 h; activity change, negative = cytotoxicity: at 57.5 µM (top of the series); further: nearly all actives have a fitted effect of over 55% in size; on activity change, negative = cytotoxicity: on the % scale 0 is the no-effect control and ±100 the full control effect
How it was run: (§2)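 Five-concentration response, 48 h; readout is ATP-driven luciferase luminescence.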

JEG-3 = test: as above; conditions: Gynecologic cancer cell panel viability, ATPlite luminescence, 48 h; series mostly up to 57.5 µM
How it was run: as §2

PA-1 = test: as above; conditions: Gynecologic cancer cell panel viability, ATPlite luminescence, 48 h; series mostly up to 57.5 µM
How it was run: as §2

SKOV3 = test: as above; conditions: Gynecologic cancer cell panel viability, ATPlite luminescence, 48 h; series mostly up to 57.5 µM
How it was run: as §2

Tov-21-G = test: as above; conditions: Gynecologic cancer cell panel viability, ATPlite luminescence, 48 h; activity change, negative = cytotoxicity: at 57.5 µM (top of the series) unless noted
How it was run: as §2

Tov112D = test: as above; conditions: Gynecologic cancer cell panel viability, ATPlite luminescence, 48 h; series mostly up to 57.5 µM
How it was run: as §2

C33A = test: as above; conditions: Gynecologic cancer cell panel viability, ATPlite luminescence, 48 h; series mostly up to 57.5 µM
How it was run: as §2

CASKI = test: as above; conditions: Gynecologic cancer cell panel viability, ATPlite luminescence, 48 h; series mostly up to 57.5 µM
How it was run: as §2

Es-2 = test: as above; conditions: Gynecologic cancer cell panel viability, ATPlite luminescence, 48 h; series mostly up to 57.5 µM
How it was run: as §2

Hek293T = test: as above; conditions: Gynecologic cancer cell panel viability, ATPlite luminescence, 48 h, control line for the selectivity index; activity change, negative = cytotoxicity: at 57.5 µM (top of the series) unless noted
How it was run: as §2

OV90 = test: as above; conditions: Gynecologic cancer cell panel viability, ATPlite luminescence, 48 h; series mostly up to 57.5 µM
How it was run: as §2

[5] = tested on: Zika virus NS2B-NS3 protease (unlinked complex); test: Primary screen GU Rhodamine qHTS for Zika virus inhibitors: Unlinked NS2B-NS3 protease assay (AID 1347159); conditions: Recombinant ZIKV NS2B-NS3 protease, Rhodamine110 substrate fluorescence; series mostly up to 107 µM; further: nearly all actives have a fitted effect of over 60% in size
How it was run: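 Enzyme 25 nM in Tris-HCl pH 8.0 + 0.01% Tween 20; compounds up to 114 microM, 15 min RT dark; + Rhod110 substrate 1.5 microM; read t0 and 15 min; delta fluorescence → % inhibition → 4-parameter Hill fit.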

[6] = Primary qHTS for inhibitors of nuclear receptor binding SET domain protein 2 (NSD2) in an RCH-ACV wild type WT cells (2C) (AID 1645877); conditions: RCH-ACV (leukaemia line) NSD2 WT (2C) viability, CellTiter-Glo, 72 h; activity change, negative = cell killing: at 44.9 µM (top of the series) unless noted; series mostly up to 44.9 µM; further: nearly all actives have a fitted effect of over 70% in size
Potency means the concentration at half of the fitted maximal effect; tags describe the fitted curve by direction and shape.

O=C(O)CSc1cc(NS(=O)(=O)c2ccc(Br)cc2)c2ccccc2c1O
active: Potency [3] 7.28 µM | Potency [4] 0.474 µM | Potency (CRL-7250) 23.1 µM
inconclusive: Potency [1] 18.4 µM [inhibitor, single point] | Potency [2] 31.6 µM [inhibitor, single point] | Potency (NIH3T3) 29.1 µM [inhibitor, single point] | Potency (CAOV3) 39.8 µM [cytotoxic, single point] | Potency (JEG-3) 39.8 µM [cytotoxic, single point] | Potency (PA-1) 31.6 µM [cytotoxic, single point] | Potency (SKOV3) 35.5 µM [cytotoxic, single point] | Potency (Tov-21-G) 35.5 µM [cytotoxic, single point] | Potency (Tov112D) 39.8 µM [cytotoxic, single point]

CC(C)c1cc(CNc2nc(Nc3cc(C4CC4)[nH]n3)cc(N3CCN(C)CC3)n2)on1
inconclusive: Potency [4] 5.32 µM [inhibitor, full curve, poor fit] | Potency (CRL-7250) 1.03 µM [inhibitor, full curve, poor fit] | Potency (C33A) 7.94 µM [cytotoxic, partial curve] | Potency (JEG-3) 3.16 µM [cytotoxic, partial curve, poor fit] | Potency (Tov-21-G) 0.562 µM [cytotoxic, full curve, poor fit]
active: Potency [1] 5.8 µM | Potency [3] 64.9 nM and 525 nM | Potency (NIH3T3) 0.461 µM | Potency (CAOV3) 0.282 µM | Potency (CASKI) 2.82 µM | Potency (Es-2) 7.94 µM | Potency (Hek293T) 2 µM | Potency (OV90) 3.16 µM | Potency (PA-1) 0.398 µM | Potency (SKOV3) 1 µM | Potency (Tov112D) 5.01 µM

C/C=C(/C)C(=O)OC1CC(C)(C)CC2C3=CCC4C5(C)CCC(O[C@@H]6O[C@H](C(=O)O)[C@@H](O)[C@H](O)[C@H]6O[C@@H]6O[C@H](CO)[C@H](O)[C@H](O[C@@H]7OC[C@H](O)[C@H](O)[C@H]7O[C@@H]7O[C@H](CO)[C@@H](O)[C@H](O)[C@H]7O)[C@H]6O)C(C)(C)C5CCC4(C)C3(C)C(O)C(O)C12CO (some centres undefined)
inactive: activity change, negative = cytotoxicity (CASKI) -3.66% [at 6.55 µM]
inconclusive: Potency [5] 10 µM [inhibitor, partial curve] | Potency [6] 3.07 µM [inhibitor, single point] | Potency (CRL-7250) 4.36 µM [inhibitor, single point] | Potency (NIH3T3) 3.47 µM [inhibitor, single point] | Potency (C33A) 6.31 µM [cytotoxic, single point] | Potency (Hek293T) 5.01 µM [cytotoxic, single point] | Potency (OV90) 2.82 µM [cytotoxic, partial curve] | Potency (PA-1) 3.98 µM [cytotoxic, single point] | Potency (Tov-21-G) 6.31 µM [cytotoxic, single point] | Potency (Tov112D) 6.31 µM [cytotoxic, single point]

O=C(CN1C2=NCCN2c2ccccc21)c1ccc(-c2ccccc2)cc1
inconclusive: Potency (CRL-7250) 29.1 µM [inhibitor, single point] | Potency (NIH3T3) 23.1 µM [inhibitor, single point] | Potency (CAOV3) 39.8 µM [cytotoxic, single point] | Potency (CASKI) 39.8 µM [cytotoxic, single point] | Potency (OV90) 39.8 µM [cytotoxic, single point] | Potency (SKOV3) 39.8 µM [cytotoxic, single point] | Potency (Tov-21-G) 25.1 µM [cytotoxic, single point]
active: Potency [1] 16.4 µM

O=C(NCCCc1ccccc1)c1cccc(-c2cc(O)c3ncccc3c2)c1
active: Potency [5] 89.1 µM | Potency (CRL-7250) 5.17 µM | Potency (SKOV3) 11.2 µM | Potency (Tov112D) 17.8 µM
inconclusive: Potency [1] 6.51 µM [inhibitor, partial curve] | Potency (NIH3T3) 29.1 µM [inhibitor, single point] | Potency (C33A) 22.4 µM [cytotoxic, single point] | Potency (Es-2) 31.6 µM [cytotoxic, partial curve] | Potency (Hek293T) 39.8 µM [cytotoxic, single point] | Potency (JEG-3) 35.5 µM [rising, single point] | Potency (OV90) 39.8 µM [cytotoxic, single point] | Potency (PA-1) 14.1 µM [cytotoxic, partial curve, poor fit]
inactive: Potency [2] | Potency [4] | Potency (CAOV3)

C=C1C(=O)O[C@@H]2[C@H]3C(C)=CC(=O)C3=C(C)[C@@H](OC(=O)/C(C)=C\C)[C@H](O)[C@@H]12
inconclusive: Potency [3] 12.7 µM [inhibitor, single point] | Potency (CRL-7250) 20.2 µM [inhibitor, single point] | Potency (NIH3T3) 12.8 µM [inhibitor, single point] | Potency (Es-2) 22.4 µM [cytotoxic, single point] | Potency (Hek293T) 11.2 µM [cytotoxic, partial curve] | Potency (PA-1) 28.2 µM [cytotoxic, single point] | Potency (Tov-21-G) 10 µM [cytotoxic, partial curve, poor fit]
inactive: Potency [1] | Potency (C33A)
active: Potency [6] 3.58 µM

CCN1CCN(Cc2ccc(NC(=O)c3ccc(C)c(/C=C/c4cnc5[nH]ccc5c4OC)c3)cc2C(F)(F)F)CC1
inconclusive: Potency (CRL-7250) 0.0326 µM [inhibitor, full curve, poor fit] | Potency (CAOV3) 22.4 µM [cytotoxic, partial curve, poor fit] | Potency (Hek293T) 31.6 µM [cytotoxic, single point] | Potency (Tov112D) 8.91 µM [cytotoxic, partial curve, poor fit]
active: Potency [6] 230 nM and 1.18 µM | Potency (NIH3T3) 5.17 µM | Potency (C33A) 14.1 µM | Potency (CASKI) 12.6 µM | Potency (Es-2) 10 µM | Potency (OV90) 17.8 µM | Potency (SKOV3) 8.91 µM

CN1CCC(Nc2nc(Nc3ccc(Oc4ccccc4)cc3)c3c(=O)[nH]cc(Br)c3n2)CC1
inconclusive: Potency (CRL-7250) 2.06 µM [inhibitor, partial curve, poor fit] | Potency (NIH3T3) 2.59 µM [inhibitor, full curve, poor fit] | Potency (CAOV3) 3.16 µM [cytotoxic, partial curve, poor fit] | Potency (CASKI) 3.16 µM [cytotoxic, single point] | Potency (Es-2) 7.08 µM [cytotoxic, single point] | Potency (PA-1) 2.82 µM [cytotoxic, full curve, poor fit] | Potency (SKOV3) 3.16 µM [cytotoxic, full curve]
active: Potency [1] 4.61 µM | Potency [3] 1.83 µM

O=C(NCc1cccc(O)c1)c1cc2cc(F)ccc2[nH]1
inactive: max response (CRL-7250) 3.57% | max response (NIH3T3) -0.959% | Potency (CAOV3) | Potency (Tov-21-G)
inconclusive: Potency [1] 18.4 µM [inhibitor, single point]

Nc1ccc(/C=C/C(=O)NCc2cc3cc(-c4ccc(C(=O)N5CCC(F)(F)CC5)cc4)cc(-c4ccc(F)cc4)c3o2)cn1
inactive: Potency [2]
inconclusive: Potency [4] 6.7 µM [inhibitor, full curve, poor fit] | Potency (NIH3T3) 20.6 µM [inhibitor, single point] | Potency (CAOV3) 25.1 µM [cytotoxic, partial curve] | Potency (CASKI) 28.2 µM [cytotoxic, partial curve, poor fit] | Potency (Es-2) 7.08 µM [cytotoxic, full curve, poor fit] | Potency (Tov112D) 7.08 µM [cytotoxic, full curve, poor fit]
active: Potency [1] 5.17 µM and 5.8 µM | Potency (CRL-7250) 3.66 µM | Potency (C33A) 7.08 µM | Potency (Hek293T) 3.98 µM | Potency (JEG-3) 1.58 µM | Potency (OV90) 3.55 µM | Potency (PA-1) 1.41 µM | Potency (SKOV3) 1.78 µM

O=C(c1cn(Cc2cncn2Cc2ccc(Br)cc2)cc1-c1cccc2ccccc12)N1CCOCC1
inconclusive: Potency (CRL-7250) 5.8 µM [inhibitor, partial curve] | Potency (CAOV3) 3.16 µM [cytotoxic, single point] | Potency (CASKI) 22.4 µM [cytotoxic, partial curve, poor fit] | Potency (Hek293T) 1.58 µM [cytotoxic, partial curve, poor fit] | Potency (JEG-3) 7.94 µM [cytotoxic, full curve] | Potency (OV90) 8.91 µM [cytotoxic, full curve, poor fit] | Potency (PA-1) 2.51 µM [cytotoxic, full curve] | Potency (Tov-21-G) 3.98 µM [cytotoxic, full curve]
active: Potency [1] 4.11 µM | Potency (NIH3T3) 7.31 µM | Potency (SKOV3) 17.8 µM
inactive: Potency [2]
